Test results taken from PubChem BioAssay AID488969 (Vanderbilt High Throughput Screening Facility, 2010).
Over roughly 110,000 compounds, “z-score” has its median near -0.1; the highest 2% begin near 2. Some of the results follow. The source made the active and inactive calls.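 The calls were made as follows: active = z-score in the third read window above 3 or below -3; inactive = the rest.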

Each compound was assayed against Metabotropic glutamate receptor 8 (Rattus norvegicus) (UniProt P70579) (assay: rat mGluR8 modulators via GIRK flux, primary screen, cell-based, thallium flux, HTS (AID 488969)). Settings: HEK293 rat mGluR8, GIRK (G protein-gated inwardly rectifying potassium channel) thallium flux, FluoZin2; at 10 µM; stronger effect = higher value; submaximal glutamate (EC20) added with thallium.
Chain of UniProt P70579 (P70579 whole entry, looked up): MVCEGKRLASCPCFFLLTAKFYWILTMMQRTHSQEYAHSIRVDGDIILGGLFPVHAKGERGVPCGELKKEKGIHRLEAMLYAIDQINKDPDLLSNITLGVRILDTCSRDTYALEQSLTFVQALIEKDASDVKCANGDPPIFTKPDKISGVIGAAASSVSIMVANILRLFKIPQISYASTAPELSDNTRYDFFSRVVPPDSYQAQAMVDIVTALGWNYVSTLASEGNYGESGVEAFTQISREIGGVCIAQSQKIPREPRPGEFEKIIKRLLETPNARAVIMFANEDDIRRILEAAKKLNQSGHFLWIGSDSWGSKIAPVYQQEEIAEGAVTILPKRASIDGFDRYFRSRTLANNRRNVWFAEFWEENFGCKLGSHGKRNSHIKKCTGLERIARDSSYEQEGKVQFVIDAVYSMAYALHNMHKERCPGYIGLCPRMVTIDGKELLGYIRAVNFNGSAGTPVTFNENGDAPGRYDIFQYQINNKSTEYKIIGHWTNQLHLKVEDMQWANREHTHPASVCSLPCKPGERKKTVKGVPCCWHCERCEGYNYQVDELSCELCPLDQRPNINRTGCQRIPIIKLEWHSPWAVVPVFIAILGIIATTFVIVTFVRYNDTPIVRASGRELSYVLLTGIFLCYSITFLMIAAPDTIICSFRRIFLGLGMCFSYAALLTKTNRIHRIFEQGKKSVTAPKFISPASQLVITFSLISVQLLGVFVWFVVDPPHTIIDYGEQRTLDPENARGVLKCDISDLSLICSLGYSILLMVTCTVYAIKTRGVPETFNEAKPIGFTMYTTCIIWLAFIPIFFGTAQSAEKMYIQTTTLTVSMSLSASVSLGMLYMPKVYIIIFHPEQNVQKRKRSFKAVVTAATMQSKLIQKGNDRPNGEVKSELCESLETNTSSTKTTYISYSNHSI
With `Cc1ccc(CNC(=O)c2ccc3c(=O)n(CC4CCCO4)c(=S)[nH]c3c2)cc1` (stereo not drawn) the z-score was 0.402. `Cc1cnc(NC(=O)CSc2nnc(-c3ccccc3)o2)s1` showed a z-score of 0.201. `C=CCN(c1ccc(C(=O)N2CCN(c3ccc(F)cc3)CC2)cc1)S(C)(=O)=O` showed a z-score of 0.686. For `COc1cc(/C=C2\SC(=Nc3ccccc3)N(CCc3c[nH]c4ccccc34)C2=O)ccc1OC(C)C(=O)O` (stereo not drawn), the z-score was -0.537. Work on `Cc1[nH]c2ccccc2c1CCO` yielded a z-score of 0.113. In the case of `CC(C)Cn1c(=O)c(C(=O)N/N=C/c2cccc(F)c2)c(O)c2ccccc21`, the z-score is reported as 0.163. With `O=C(c1ccccc1)c1ccc(N2CCOCC2)c(NC(=O)c2ccco2)c1` the z-score was 1.09. Work on `CC(SCC(=O)NC(C)C1CC2CCC1C2)C(=O)O` (stereo not drawn) yielded a z-score of 0.297. With `O=C(CSc1nc2c(c(=O)[nH]1)CCCC2)Nc1ccc(Cl)cc1F` the z-score was -1.34. Work on `COCCn1c(C)cc(C2=NNC(=Nc3ccccc3)SC2)c1C` yielded a z-score of -0.413. In the case of `COC(=O)c1c(NC(C)=O)sc2c1CCCCC2`, the z-score is reported as -0.338. Compound `CC(=O)c1ccc(NC(=O)C2CCN(S(=O)(=O)c3cccc4cccnc34)CC2)cc1` has a z-score of -0.751. Compound `Cc1cc(/C=N/O)c(C)n1-c1ccc(Br)cc1` has a z-score of -0.177. `COc1ccc(C(=O)Nc2nc(-c3cccs3)c(NC(C)=O)s2)cc1` showed a z-score of 0.337. In the case of `COCCCNC(=O)c1cc2c(s1)CS(=O)(=O)C2`, the z-score is reported as -0.0125. In the case of `O=C(Cn1sc2ccccc2c1=O)NC12CC3CC(CC(C3)C1)C2`, the z-score is reported as -0.288. `CCOC(=O)CC1C(=O)NCCN1S(=O)(=O)c1ccc(Cl)cc1Cl` (stereo not drawn) showed a z-score of 0.0867. Compound `O=S(=O)(NCC1CCCO1)c1cccc(C(F)(F)F)c1` (stereo not drawn) has a z-score of 1.34. `N#Cc1ccccc1OCCN1C(=O)c2ccccc2C1=O` gave a z-score of -2.03. `Cc1nn(CCC#N)c2nc(-c3ccccc3)cc(C(F)(F)F)c12` showed a z-score of 0.5. Compound `COCCn1c(CN2CCN(c3ccccc3)CC2)nc2c1c(=O)n(C)c(=O)n2C` has a z-score of 0.143. `O=C(c1ccc([N+](=O)[O-])cc1)N1CCSC1c1ccc(Cl)cc1` (stereo not drawn) showed a z-score of -0.503. With `COc1ccc(S(=O)(=O)N/N=C\c2ccc3c(c2)OCO3)cc1` the z-score was -0.348. `CC1CCC(NCc2ccco2)CC1` (stereo not drawn) was tested, and the z-score was -0.0226. Work on `CCOC(=O)c1cc(-c2ccccc2)sc1NC(=O)c1ccc(OC)cc1` yielded a z-score of -0.199. In the case of `CN(C)S(=O)(=O)c1ccc(Cl)c(C(=O)NCc2ccco2)c1`, the z-score is reported as -1.56. In the case of `CCOc1nc(S(=O)(=O)c2ccc(C)cc2)c(Cl)s1`, the z-score is reported as -0.802. `O=C(CN1C(=O)NC2(CCCC2)C1=O)Nc1ccc(F)c(F)c1F` was tested, and the z-score was 0.266. `COc1ncnc2c1oc1nc(CC(C)C)c3c(c12)CCCC3` showed a z-score of 0.0377. `O=C(NCCCN1CCOCC1)c1ccc(Sc2cccc(Cl)c2)c([N+](=O)[O-])c1` was tested, and the z-score was -0.497. Compound `Nc1n[nH]c(-c2cccc([N+](=O)[O-])c2)n1` has a z-score of -0.125. Work on `C/C(NC(=O)c1cccs1)=C1\C(=O)C[C@@H]2[C@H]1C2(C)C` yielded a z-score of -0.47. `COc1cc(NC(=O)c2cc3sccc3n2C)cc(OC)c1` gave a z-score of -0.0259. `c1coc(-c2nnc3sc(-c4cccs4)nn23)c1` was tested, and the z-score was -0.343. `COC(=O)CCC(=O)NNC(=O)c1ccc(Br)cc1` showed a z-score of 0.129. `CC(C)[C@H](NC(=O)c1ccccc1)C(=O)OCC(=O)c1ccc2c(c1)NC(=O)CO2` gave a z-score of -0.276. `Cc1cc(C)c(NC(=O)c2ccccc2N(C)S(C)(=O)=O)c(C)c1` was tested, and the z-score was 0.0701. `O=C(CCN1C(=O)c2ccccc2C1=O)N1CCOCC1` showed a z-score of 0.585. Work on `CCOc1ccc(OCCCCOc2ccccc2C(C)=O)cc1` yielded a z-score of -0.286. In the case of `COc1ccc(CCNc2oc(-c3ccco3)nc2C#N)cc1`, the z-score is reported as -1.45. `O=C(NCc1ccccn1)c1ccc(Cl)cc1Cl` was tested, and the z-score was 0.136. `OCCNCC(O)Cn1ccc2ccccc21` (stereo not drawn) was tested, and the z-score was 0.00536. `S=c1[nH]nc(-c2cccc(Br)c2)o1` was tested, and the z-score was -0.124. `COc1ccccc1C1(CC(=O)O)CCOC(C)(C)C1` (stereo not drawn) showed a z-score of -0.25. Compound `O=C(c1cc([N+](=O)[O-])ccc1N1CCN(S(=O)(=O)c2ccc(Cl)c(Cl)c2)CC1)N1CCOCC1` has a z-score of -0.243. Compound `CC(Nc1ccccc1)C(=O)Nc1ccc(F)cc1` (stereo not drawn) has a z-score of -0.0628. `O=C(O)c1ccc(NC(=O)C2CC=CCC2C(=O)O)cc1` (stereo not drawn) gave a z-score of 0.0442. For `Nc1nc(-c2ccccc2)cn1N`, the z-score was -0.0937. With `Cc1cccc(/C(N)=N/OC(=O)c2cccs2)c1` the z-score was 0.161. With `COC(=O)c1ccc(COC(=O)c2[nH]c(C)c(C(C)=O)c2C)o1` the z-score was -0.813. `COc1ccccc1NC(=O)N1CCCC1C(=O)Nc1ccc(NC(C)=O)cc1` (stereo not drawn) was tested, and the z-score was -0.164. `C=CCn1c(COc2ccc(Cl)cc2)nnc1SCC(=O)N/N=C/c1ccccc1` showed a z-score of -0.13. `CC(Sc1nnc(-c2ccccc2)c(-c2ccccc2)n1)C(=O)N1CCc2ccccc21` (stereo not drawn) gave a z-score of -0.603. `CCOC(=O)c1c(NC(=O)CSc2nc3ccccc3s2)sc(C)c1C` was tested, and the z-score was 1.4. Compound `CC1=C(C(=O)OC(C)C)C(c2cccnc2)n2ncnc2N1` (stereo not drawn) has a z-score of 0.0927. `CCCCOc1ccc(NC(=O)C(=O)NCCC2=CCCCC2)cc1` gave a z-score of 0.0775. With `CCCCCCC(=O)NN1CCN(C)CC1` the z-score was -0.0882. For `CCOCCCNC(=O)C(NC(=O)c1ccc2c(c1)OCO2)c1ccc(OC)cc1` (stereo not drawn), the z-score was -0.371. In the case of `O=C(NC1CCCCC1)C(c1ccccc1)N1CCOCC1` (stereo not drawn), the z-score is reported as -0.0618. `CCCCn1c(NC(C)CC)nc2c1c(=O)[nH]c(=O)n2C` (stereo not drawn) showed a z-score of 0.471. `COC(=O)c1cc(OC)c(OC)cc1NC(=S)N1CCN(C)CC1` was tested, and the z-score was -0.191. `Cc1cccc(OCc2nnc(NC(=O)Cc3cccs3)s2)c1` gave a z-score of -0.55. `COc1ccc(OC)c(NC2=NC3(CCCC3)N=C(N)N2)c1` was tested, and the z-score was -0.103. For `Cc1[nH]nc2c1C1(CCN(Cc3ccccc3)CC1)C(C#N)=C(N)O2`, the z-score was 0.827. `O=C(COc1ccc(Cl)cc1Cl)NC(=S)N1CCCc2ccccc21` was tested, and the z-score was active: 13.2. `CC(=O)c1c(NC(=O)C(C)C)nc(C)nc1-c1ccccc1` gave a z-score of 0.562. For `Cc1ccc(C)c(-c2csc(N)c2C(=O)OC(C)C)c1`, the z-score was 0.0236. Compound `CCOC(=O)C(C)n1cnc2c(nnn2-c2ccc(OC)cc2)c1=O` (stereo not drawn) has a z-score of -0.258. With `O=C(OCc1cccc(F)c1)c1ccc2c(c1)-c1ccccc1C2=O` the z-score was -0.0794. Compound `Cc1ccc(-c2nn(C)c(=O)c3ccccc23)cc1S(=O)(=O)NCCO` has a z-score of 0.214. `Cc1ccc(CN2CCN(CC(=O)N3CCC(C(N)=O)CC3)C2=O)cc1` was tested, and the z-score was -0.229. In the case of `CCOc1ccc(-n2cc(C(=O)Nc3cccc(Cl)c3)c3cc(OC)c(OC)cc3c2=O)cc1`, the z-score is reported as -0.164. Compound `Cc1cc(C)c2c(CN3CCN(C)CC3)cc(=O)oc2c1` has a z-score of -0.5. `Cc1nnc(-c2cnn(C)c2N)n1Cc1ccccc1F` gave a z-score of 0.324. `Cc1cc(NC(=O)c2cccc(F)c2)no1` showed a z-score of 0.125. `Cc1ccc(NC2=C(N3CCOCC3)C(=O)c3ccccc3C2=O)cc1` gave a z-score of -0.00307. In the case of `O=C(CCC(=O)c1ccc(Oc2ccccc2)cc1)Nc1cccc(Cl)c1`, the z-score is reported as -0.0331. `Cc1ccc(Cl)cc1-c1ccc(C=Nc2ccc(N3CCOCC3)cc2)o1` showed a z-score of -0.123. With `CC(C)CCNC(=O)Cn1c(NCCC(C)C)nc2c1c(=O)n(C)c(=O)n2C` the z-score was -0.109. Work on `COc1ccc(/C=N/NC(=O)CCCOc2ccc(Cl)cc2Cl)cc1` yielded a z-score of -0.126. Compound `CCOc1ccc(S(=O)(=O)Nc2ccccc2SC)c2cccnc12` has a z-score of -0.258. In the case of `Fc1ccc(Oc2nc(-c3ccccc3)nnc2C(F)(F)F)cc1`, the z-score is reported as 0.388. `O=C(COC(=O)c1cccnc1Cl)Nc1nc(-c2ccccc2)cs1` was tested, and the z-score was -0.566. `CC(C)CC(=O)Nc1cccc2c1C(=O)N(c1ccccc1)C2=O` was tested, and the z-score was active: -3.2. `COCCNC(=O)Cn1nc(C(F)(F)F)c(Cl)c1C` was tested, and the z-score was -0.0378. Compound `COc1ccc(Br)cc1/C=C/C(=O)Nc1c(C)cccc1C` has a z-score of -0.182. Compound `CCC(C)(C)n1nnnc1CN1CCC(NC(=O)c2ccccc2C)CC1` has a z-score of 0.0757. `COc1ccc(-c2c(C#N)c(SCC(=O)c3cc4ccccc4oc3=O)nc(C)c2C(=O)Nc2ccccc2)cc1` was tested, and the z-score was -0.154. `Cc1cc(C)nc(SCC(=O)N/N=C/c2cccs2)n1` showed a z-score of -0.00188. Compound `Cc1cc(OCC(=O)Nc2ccc(N3CCN(C(=O)c4ccco4)CC3)cc2)cc(C)c1Cl` has a z-score of -0.102. Compound `CCOC(=O)N1CCC(NC(=O)C(CC(C)C)NC(=O)C2CCC(C)CC2)CC1` (stereo not drawn) has a z-score of -0.0395. Compound `O=C(CN1CCN(c2nc(-c3ccccc3)cs2)CC1)NNC(=O)c1ccc(Br)cc1` has a z-score of -0.222. `CCOC(=O)N1CCN(C(=O)C2CCN(Cc3nc(-c4ccccc4C)oc3C)CC2)CC1` showed a z-score of -0.822. For `CCNC(=S)NNC(=O)c1cc(-c2cccc(OCC)c2)nc2ccccc12`, the z-score was -0.498. Work on `Cc1ccccc1Cn1ccc(NC(=O)CCSc2nc(-c3ccco3)cc(C(F)(F)F)n2)n1` yielded a z-score of -1.32. In the case of `CCCn1nnc(NC(=S)NC(=O)CC)n1`, the z-score is reported as -0.197. `CCC(c1nnnn1C1CCCC1)N1CCN(Cc2ccccc2)CC1` (stereo not drawn) gave a z-score of 0.0349. With `O=C(CCCC(=O)N(CC(=O)NC1CCCC1)Cc1ccccc1)Nc1ccccn1` the z-score was -0.397. For `CCCN1CN(Cc2ccco2)c2nc3ccccc3n2C1`, the z-score was 1.21. In the case of `Cc1ccc(C(=O)COC(=O)CCC(=O)Nc2cc(Cl)ccc2Cl)cc1[N+](=O)[O-]`, the z-score is reported as 0.229. With `Cc1nnc(SCc2ccccc2)nc1/C=C/NOCc1ccc(Cl)cc1Cl` the z-score was -0.245. In the case of `COc1ccc2cc(-c3nc4ccccc4n3C)c(=O)oc2c1`, the z-score is reported as 0.139. `CCCCc1ccc(Nc2ncccc2C#N)cc1` was tested, and the z-score was 0.0326. Work on `O=C(CCC1CCCC1)N1CCN(C(=O)C2CC2)CC1` yielded a z-score of 0.124. `COc1cc(/C=N/NC(=O)C2(O)c3ccccc3-c3ccccc32)ccc1O` showed a z-score of -0.34. Work on `O=C(CSc1nc2nc3c(cc2c(=O)n1-c1ccccc1)CCCC3)Nc1ccccc1` yielded a z-score of -0.468. Compound `CCOC(=O)CSc1nc2ccccc2c(=O)n1NC(=O)c1ccccc1` has a z-score of -0.107. In the case of `CN(C)CCN(Cc1ccccc1)c1nccc(N(C)C)c1C#N`, the z-score is reported as -0.252. `OC(COCCOc1ccc(Br)cc1)CN1CCCCC1` (stereo not drawn) was tested, and the z-score was 0.448. `Cc1ccccc1Nc1cc(C(=O)NCc2ccco2)c2ccccc2n1` gave a z-score of -0.0644. For `O=S(=O)(NCCC(c1ccc(F)cc1)c1ccco1)c1ccccc1` (stereo not drawn), the z-score was -0.444. In the case of `C=CCn1c(SCC(=O)Nc2ccc(-c3nc4ccc(C)cc4s3)cc2)nnc1-c1ccccc1`, the z-score is reported as 0.381. `COCCN(C(=O)c1ccco1)c1nnc(-c2ccc(OC)cc2)s1` gave a z-score of -0.82.
